From the RNAGym collection of RNA variant scans (doi:10.1093/nar/gkz1192)
The source gives no read counts; variants with many changes may rest on few reads.

B1: CPEB3 Ribozyme (parent)
chain: UAACAGGGGGCCACAGCAGAAGCGUUCACGUCGCAGCCCCUGUCAGAUUCUGGUGAAUCUGCGAAUUCUGCUGUAUAUCUC

Variants of: B1
Experiment: self-cleavage, relative activity (ratio to wild type); higher = more cleavage; in vitro, sequencing
Method in brief: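 Libraries of CPEB3 self-cleaving ribozyme mutants came from rounds of error-prone PCR and carried barcodes, which DNA sequencing matched to variants. In vitro transcription used T7 RNA polymerase at 37°C for 5 hours, with a further 15 min in DNase I before EDTA stopped the reaction; the ribozymes cleaved during both steps. The RNA was reverse transcribed with template switching and sequenced on Illumina. Relative activity is the cleaved/total read fraction of a variant divided by that of the unmutated ribozyme, averaged over three batches with at least 5 reads.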

Which self-cleavage does the source give for A3G U48C U72A here?
The self-cleavage was 0.99.

For A3U U60C C71U, which self-cleavage is on record?
Its self-cleavage is 0.42.

With A3U A65G U66C U80C as the variant, how does the self-cleavage read?
The self-cleavage was 0.47.

For A3G U25C U26C A47G A64U U69G, which self-cleavage is on record?
Its self-cleavage is 0.34.

With A3G U26C A64G as the variant, how does the self-cleavage read?
Its self-cleavage is 0.72.

For A3G U25C C29G A75G, which self-cleavage is on record?
The self-cleavage was 0.12.

With A3G G24A U76C as the variant, how does the self-cleavage read?
Its self-cleavage is 0.23.

With A3U A18U A20G A28G A35G A65G U80C as the variant, how does the self-cleavage read?
Its self-cleavage is 0.38.

Which self-cleavage does the source give for C4A G8A U25A A57U U69A here?
The self-cleavage was 0.06.

With A3U A57G U74C as the variant, how does the self-cleavage read?
The self-cleavage was 0.88.

With A3U A28C U31C U60A U76C as the variant, how does the self-cleavage read?
The self-cleavage was 0.31.

With C4U A13G A35U as the variant, how does the self-cleavage read?
Its self-cleavage is 0.84.

For A3G G30A A47G, which self-cleavage is on record?
The self-cleavage was 0.38.

Which self-cleavage does the source give for A3U A13G U43C U49C here?
The self-cleavage was 0.07.

For C4U G6A A20G A77G, which self-cleavage is on record?
Its self-cleavage is 0.29.

For C4U A20G U31C, which self-cleavage is on record?
The self-cleavage was 0.61.

For C4U G7A A18U A21G G42A A56U, which self-cleavage is on record?
Its self-cleavage is 0.07.

With C4A U25C A35G C40A U41A U54C A65U as the variant, how does the self-cleavage read?
The self-cleavage was 0.13.

With A3U U26C A35U U49C U67C U80C as the variant, how does the self-cleavage read?
The self-cleavage was 0.25.

With A3G G46U U49C U80G as the variant, how does the self-cleavage read?
Its self-cleavage is 0.1.

For C4A U26A A28U C38A U43C G61A U80C, which self-cleavage is on record?
The self-cleavage was 0.12.

Which self-cleavage does the source give for A3U U48A U72A U74C here?
The self-cleavage was 0.29.

Which self-cleavage does the source give for C4G G7U A21G A47G U49C G63U here?
Its self-cleavage is 0.05.

For A3G U26C U31G U43A A65U, which self-cleavage is on record?
Its self-cleavage is 0.48.

Which self-cleavage does the source give for A3G U41A U67A here?
Its self-cleavage is 0.41.

Which self-cleavage does the source give for A3G U31A A64U here?
The self-cleavage was 0.13.

Which self-cleavage does the source give for A3G U31A G63U here?
The self-cleavage was 0.81.

Which self-cleavage does the source give for C4G U25G U72A here?
The self-cleavage was 0.12.

For A3U A18G U69A, which self-cleavage is on record?
Its self-cleavage is 0.58.

With A3U A18G U31C A35G C40A A57G as the variant, how does the self-cleavage read?
The self-cleavage was 0.42.

With A3U A5U A35U U41C U66C U67C as the variant, how does the self-cleavage read?
The self-cleavage was 0.47.

For A3G G10U C39A A75G, which self-cleavage is on record?
The self-cleavage was 0.21.

Which self-cleavage does the source give for C4U A21C G22U U31C C38A U41G U74C here?
The self-cleavage was 0.17.

Which self-cleavage does the source give for A3U C12U A56G here?
The self-cleavage was 1.03.

Which self-cleavage does the source give for A3U A45U U49C here?
Its self-cleavage is 0.32.

For A3U A57G U69C, which self-cleavage is on record?
The self-cleavage was 0.8.

With A3U C14U G33A U54C U66C as the variant, how does the self-cleavage read?
Its self-cleavage is 0.11.

Which self-cleavage does the source give for A3U U69C U72C A77G here?
Its self-cleavage is 0.45.

With A3G U25A A28G C29G U49C U58C A65G as the variant, how does the self-cleavage read?
The self-cleavage was 0.11.

Which self-cleavage does the source give for C4U A21G U31C U80C here?
Its self-cleavage is 0.39.

For A3U C4U U26C A35G, which self-cleavage is on record?
Its self-cleavage is 1.22.

With A3G G19U U25C U41C as the variant, how does the self-cleavage read?
The self-cleavage was 0.32.

Which self-cleavage does the source give for A3U A21C G53U here?
The self-cleavage was 0.33.

For A3U G8C U51C A57G, which self-cleavage is on record?
The self-cleavage was 0.16.

For C4U A20U U25G, which self-cleavage is on record?
The self-cleavage was 0.57.

With A3U G6A U58A U67C U69A as the variant, how does the self-cleavage read?
Its self-cleavage is 0.32.

With C4U A5G G42A A45G U60C U67C U78C as the variant, how does the self-cleavage read?
The self-cleavage was 0.19.

For A3U A28G U41A U72A, which self-cleavage is on record?
Its self-cleavage is 0.12.

With A3U U60C U74C U80C as the variant, how does the self-cleavage read?
The self-cleavage was 0.74.

For A3G U31A C50G A57G U58A A65U, which self-cleavage is on record?
Its self-cleavage is 0.28.

Which self-cleavage does the source give for C4U A15G A35G U48C U67C U78A here?
Its self-cleavage is 0.17.

Which self-cleavage does the source give for A3U G9A A28U here?
The self-cleavage was 0.3.

For A3U G7U G61A, which self-cleavage is on record?
Its self-cleavage is 0.09.

Which self-cleavage does the source give for A3U A21G U26A U41A U74C here?
The self-cleavage was 0.09.

Which self-cleavage does the source give for A3U C29U U51A U60C A64U here?
Its self-cleavage is 0.28.

For A3U A5G A15G A47U A56G, which self-cleavage is on record?
Its self-cleavage is 0.56.

With A3G U41A U60C U74G U76C as the variant, how does the self-cleavage read?
The self-cleavage was 0.12.

With A3U U25C U58C C59A A64G as the variant, how does the self-cleavage read?
Its self-cleavage is 0.28.

With A3U A5G U25A U43C as the variant, how does the self-cleavage read?
The self-cleavage was 0.55.

Which self-cleavage does the source give for A3G G22A U25C U58A U74A here?
Its self-cleavage is 0.33.

For A3U U54C A56G A57U U60C U69C, which self-cleavage is on record?
Its self-cleavage is 0.29.

Which self-cleavage does the source give for A3G U25C U26C C39U G55A U74C here?
Its self-cleavage is 0.09.

For A3U U41A U51C, which self-cleavage is on record?
Its self-cleavage is 0.27.

Which self-cleavage does the source give for A3U G10C U60C here?
The self-cleavage was 0.34.

With A3G U41A C62G G63A U74C as the variant, how does the self-cleavage read?
Its self-cleavage is 0.21.

Which self-cleavage does the source give for A3G G52U A77G U78A here?
The self-cleavage was 1.27.

With A3U G24A A28G U41A as the variant, how does the self-cleavage read?
Its self-cleavage is 0.17.

Which self-cleavage does the source give for C4G U41A G46A A75G here?
Its self-cleavage is 0.04.

Which self-cleavage does the source give for A3G U31C U72A A77U here?
Its self-cleavage is 0.47.

With A3U A13G U31A U41C U51A U69A G73A as the variant, how does the self-cleavage read?
Its self-cleavage is 0.51.

Which self-cleavage does the source give for A3G U48C U74C here?
The self-cleavage was 0.91.

For A3G U51C C59G, which self-cleavage is on record?
Its self-cleavage is 0.3.

With A3G U26A U51C as the variant, how does the self-cleavage read?
The self-cleavage was 0.59.

With A3U A13U A18U A21G U49C as the variant, how does the self-cleavage read?
Its self-cleavage is 0.1.

For A3U A13G U26A U31A C34U U69G, which self-cleavage is on record?
Its self-cleavage is 0.16.

Which self-cleavage does the source give for C4U C11A C39G A47G U54C here?
The self-cleavage was 0.08.

For A3G U43A U76A, which self-cleavage is on record?
Its self-cleavage is 1.11.

With A3U A13G U41A as the variant, how does the self-cleavage read?
Its self-cleavage is 0.42.

Which self-cleavage does the source give for A3G U26C A64U U80A here?
Its self-cleavage is 0.

For A3G U31A U48A U74C, which self-cleavage is on record?
Its self-cleavage is 0.49.

Which self-cleavage does the source give for A3U G8U G19U U58A A64G U78C here?
Its self-cleavage is 0.06.

With A3G G53A U74C as the variant, how does the self-cleavage read?
The self-cleavage was 1.26.

Which self-cleavage does the source give for C4G C23G A28G A56G here?
Its self-cleavage is 0.08.

For A3U A18G U51C U54C U80A, which self-cleavage is on record?
Its self-cleavage is 1.22.
